# According to PubChem BioAssay AID485281 (National Center for Advancing Translational Sciences (NCATS), 2010):
# Out of some 350,000 compounds screened, about 260 (0.074%) were called active. The shares of active, inactive and inconclusive entries below differ from those in the screen. Calls follow the shape of the dose curve; as a rule, active = well fitted inhibition curve with a large enough effect; inconclusive = small, poorly fitted or top-dose-only effect; inactive = no such curve, though single readings can be large or run the other way. Potencies beside an inconclusive call are fits to weak or partial responses and may not hold up.
# Biological target: Ferritin light chain (Equus caballus) (UniProt P02791)
# Assay: qHTS Assay for Identification of Novel General Anesthetics; also: nearly all actives have a fitted effect of over 20% in size
# Details: apoferritin/1-aminoanthracene competitive binding, fluorescence; series mostly up to 77.5 µM
# How it was run: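 Probe: 1-aminoanthracene (50% saturated, PBS). Protein: horse-spleen apoferritin, 10 uM. Incubation: 10 min, room temperature. Detection: 380 nm excitation, 535 nm emission. Analysis: normalized response, four-parameter Hill.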
# Potency is read from the fitted curve at half-maximal effect; tags tell the direction and shape of the fitted curve.
# UniProt P02791, sequence (P02791 whole entry, looked up): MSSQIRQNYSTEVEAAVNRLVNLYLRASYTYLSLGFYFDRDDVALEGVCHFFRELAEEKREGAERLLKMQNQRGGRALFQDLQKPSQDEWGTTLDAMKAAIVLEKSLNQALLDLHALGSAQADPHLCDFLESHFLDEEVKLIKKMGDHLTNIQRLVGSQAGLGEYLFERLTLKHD
row,Structure (SMILES),Potency
1,Cc1nc(NC(=O)c2ccc(Br)o2)ccc1Br,"inconclusive: 50.1 µM [inhibitor, single point]"
2,COC(=O)c1sccc1NC(=S)N1CCN(c2cccc(C)c2C)CC1,inactive
3,CC(C)=CC(=O)N1CC[C@@H](N2CCN(c3ccccc3F)CC2)[C@H](O)C1,inactive
4,COC(=O)c1scc(-c2ccccc2)c1S(=O)(=O)Nc1ccc(C)c(Cl)c1,"inconclusive: 11.2 µM [inhibitor, partial curve]"
5,CC(C)Cn1c(C(C)C)nc([N+](=O)[O-])c1S(=O)(=O)c1ccc(F)cc1,"inconclusive: 28.2 µM [inhibitor, partial curve]"
6,Cc1cccc(N(CC(=O)N(C)Cc2ccccc2)S(=O)(=O)c2ccccc2)c1C,inactive
7,CCOC(=O)C(=O)Nc1nnc(SCc2ccc(F)cc2)s1,inactive
8,Clc1ccccc1-c1nnc(SCc2nc(-c3ccccc3)no2)n1-c1ccccc1,inactive
9,CCOC(=O)c1ccc(NC(=O)c2nc[nH]c2C(=O)N[C@@H](CCCCNC(=O)OC(C)(C)C)C(=O)OC(C)(C)C)cc1,"inconclusive: 6.31 µM [inhibitor, partial curve]"
10,CCN(CC)S(=O)(=O)c1ccc(Oc2cccc(C(C)=O)c2)nc1,"inconclusive: 35.5 µM [inhibitor, partial curve]"
11,CC[n+]1c(C=C2C=C(C)OC(C)=C2)sc2ccccc21,"inconclusive: 31.6 µM [inhibitor, partial curve]"
12,CCC(C)(C)NC(=O)C(c1ccc(C)o1)N(Cc1cccs1)C(=O)Cn1nnc2ccccc21 (centres undefined),"inconclusive: 7.94 µM [inhibitor, partial curve]"
13,CC(C)(C)C1C/C(=C/c2ccco2)C(=O)/C(=C/c2ccco2)C1 (centres undefined),"inconclusive: 35.5 µM [inhibitor, single point]"
14,Cn1cc(Cl)c(C(=O)Nc2cnn(Cc3ccc(F)cc3)c2)n1,"inconclusive: 35.5 µM [inhibitor, single point]"
15,C=CCNc1nc2c(c(=O)n(C)c(=O)n2C)n1CCCCCC,inactive
16,Nc1nnc(SCCOc2ccccc2)s1,"inconclusive: 44.7 µM [inhibitor, single point]"
17,COc1ccc(C2Nc3ccccc3C(=O)N2Cc2ccco2)cc1COc1ccc([N+](=O)[O-])cc1 (centres undefined),"inconclusive: 14.1 µM [inhibitor, partial curve]"
18,O=C(Nc1cc(Cl)ccc1N1CCOCC1)c1ccc(Br)o1,"inconclusive: 14.1 µM [inhibitor, partial curve]"
19,Cc1ccc(N2CC(C(=O)OCC(=O)C(C)(C)C)CC2=O)cc1C (centres undefined),"inconclusive: 44.7 µM [inhibitor, partial curve, poor fit]"
20,O=C(CNC(=O)c1ccc2c(c1)OCO2)N/N=C/c1cc(Br)ccc1O,"inconclusive: 12.6 µM [inhibitor, partial curve]"
21,Clc1ccsc1-c1ccc2ccccc2n1,"inconclusive: 35.5 µM [inhibitor, partial curve]"
22,CC(=O)c1ccc(-c2ccc(C(=O)N3CCN(c4ccc(F)cc4)CC3)o2)cc1,"inconclusive: 35.5 µM [inhibitor, partial curve]"

row,Structure (SMILES),Potency
1,Cc1cc(NC(=O)C2CCCN(S(=O)(=O)c3cn(C)cn3)C2)ccc1Br (centres undefined),inactive
2,Cc1cc(C(F)(F)F)n2nc(-c3cnn(C)c3C(F)(F)F)c(Cl)c2n1,"inconclusive: 31.6 µM [inhibitor, partial curve]"
3,COc1ccccc1NCC(=O)c1ccc(C)c(C)c1,"inconclusive: 35.5 µM [inhibitor, single point]"
4,Nc1nc(COc2ccc(Cl)cc2)cs1,"inconclusive: 28.2 µM [inhibitor, partial curve]"
5,Cc1cc(NS(=O)(=O)c2ccc(NC(=S)NC(=O)c3cccnc3)cc2)no1,inactive
6,Nc1cc(Cl)ccc1N1CCCCC1,"inconclusive: 39.8 µM [inhibitor, partial curve]"
7,Cc1ccccc1C(=O)N1CCCC(N2CCN(Cc3ccc4c(c3)OCO4)CC2)C1 (centres undefined),inactive
8,CC(C)Oc1ccc(CNC(=O)c2cccc(NC(=O)c3nsc4ccccc34)c2)cc1,inactive
9,CC(NC(=O)COC(=O)CCc1ccccc1)c1ccccc1 (centres undefined),inactive
10,O=C(COc1ccc(-c2ccccc2)cc1)N/N=C/c1cccnc1,"inconclusive: 20 µM [inhibitor, single point]"
11,Cc1cc(C)c(C)c(S(=O)(=O)N2CCN(C(=O)c3cc(=O)[nH]c4ccccc34)CC2)c1C,"inconclusive: 28.2 µM [inhibitor, partial curve]"
12,COc1ccc(Nc2c3c(nc4ccc(NC(=O)c5cc(Cl)ccc5OC)cc24)CCCC3)cc1OC,"inconclusive: 10 µM [inhibitor, partial curve]"
13,Cc1ccc(NCC(=O)N/N=C\C(Br)=C\c2ccccc2)cc1,"inconclusive: 50.1 µM [inhibitor, partial curve]"
14,CC(/C=C1\SC(=S)N(NC(=O)c2ccc(C)cc2)C1=O)=C\c1ccccc1,"inconclusive: 15.8 µM [inhibitor, partial curve]"
15,NS(=O)(=O)c1cccc(NC(=O)COC(=O)Cc2ccc(Cl)cc2)c1,"inconclusive: 17.8 µM [inhibitor, partial curve]"
16,Fc1ccccc1C1CC(c2ccco2)=Nc2ccccc2S1 (centres undefined),"inconclusive: 35.5 µM [inhibitor, partial curve]"
17,C/C(=N\NC(=O)Cc1ccccc1)c1cccs1,"inconclusive: 28.2 µM [inhibitor, partial curve]"
18,CCn1c(=O)c2sccc2n(CC(=O)NCCC2=CCCCC2)c1=O,inactive
19,COc1ccc(-c2csc(/C(C#N)=C/Nc3ccc4c(c3)OCCO4)n2)cc1,inactive
20,O=C(Nc1cccc(NC(=O)c2cccs2)c1)c1ccc2c(c1)OCCO2,"inconclusive: 20 µM [inhibitor, partial curve]"
21,Cc1cccc(C(=O)Oc2ccccc2-c2nnco2)c1,"inconclusive: 31.6 µM [inhibitor, partial curve]"
22,Oc1ccccc1-c1nnc(COc2ccccc2)o1,"inconclusive: 22.4 µM [inhibitor, partial curve]"
